# The list shows a part of the results.
# B1: AMA (Arum maculatun) (protein)
# chain: MAKLLLLLLLPAIVGLAVPRSAAAVGSNYMLSGETLNTDGRLTNGELTLIMQVDCNLVLYHGGWQSNTANNGRDCKLTLTDFGELVIKSGTGSTVWSSGSKQSMKGNYAAVVHPEGRLVIYGPSVFKINPSGAGLNGLPLRNIPLTNNMLFSGQVLYGDGTLSARNHKLVMQGDCNMVLYGGKYGWQSNTHGNGKYCFAMLTHKGELVIRDDDFKSVWSSKSSSKQGDYVFILQDDSLAIIYGPAVFSTGSKKMISMVTN
# Key:
# Assay in all cases: glycan array binding signal (z-score within array); higher = stronger binding
# Details in all cases: glycan notation: IUPAC condensed, linker removed
# [1] = biological target: GlcNAc(b1-2)[GlcNAc(b1-4)]Man(a1-3)[GlcNAc(b1-4)][GlcNAc(b1-2)Man(a1-6)]Man(b1-4)GlcNAc(b1-4)GlcNAc
# Procedure, shortened: (§1)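 The binding signal is a Z-score computed within each array. Data were drawn from 3228 arrays in the Consortium for Functional Glycomics database, restricted to those with a known protein sequence. Scores were averaged over arrays of the same protein sequence at different concentrations or buffers, and over linkers, and negative values can be taken as non-binding.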
# [2] = biological target: GlcNAc(b1-2)[GlcNAc(b1-4)]Man(a1-3)[GlcNAc(b1-4)][GlcNAc(b1-2)[GlcNAc(b1-6)]Man(a1-6)]Man(b1-4)GlcNAc(b1-4)GlcNAc
# Procedure, shortened: as §1
# [3] = biological target: GlcNAc(b1-2)[GlcNAc(b1-4)]Man(a1-3)[GlcNAc(b1-4)][GlcNAc(b1-2)[GlcNAc(b1-6)]Man(a1-6)]Man(b1-4)GlcNAc(b1-4)[Fuc(a1-6)]GlcNAc
# Procedure, shortened: as §1
# [4] = biological target: GlcNAc(b1-2)[GlcNAc(b1-6)]Man(a1-6)[GlcNAc(b1-2)Man(a1-3)]Man(b1-4)GlcNAc(b1-4)GlcNAc
# Procedure, shortened: as §1
# [5] = biological target: GlcNAc(b1-2)[GlcNAc(b1-6)]Man(a1-6)[GlcNAc(b1-2)Man(a1-3)]Man(b1-4)GlcNAc(b1-4)[Fuc(a1-6)]GlcNAc
# Procedure, shortened: as §1
# [6] = biological target: GlcNAc(b1-2)[GlcNAc(b1-6)]Man(a1-6)[GlcNAc(b1-4)][GlcNAc(b1-2)Man(a1-3)]Man(b1-4)GlcNAc(b1-4)GlcNAc
# Procedure, shortened: as §1
# [7] = biological target: GlcNAc(b1-3)Fuc
# Procedure, shortened: as §1
# [8] = biological target: GlcNAc(b1-3)Gal
# Procedure, shortened: as §1
# [9] = biological target: GlcNAc(b1-3)Gal(b1-3)GalNAc
# Procedure, shortened: as §1
# [10] = biological target: GlcNAc(b1-3)Gal(b1-4)Glc
# Procedure, shortened: as §1
# [11] = biological target: GlcNAc(b1-3)Gal(b1-4)GlcNAc
# Procedure, shortened: as §1
# [12] = biological target: GlcNAc(b1-3)Gal(b1-4)GlcNAc(b1-2)Man(a1-3)[GlcNAc(b1-3)Gal(b1-4)GlcNAc(b1-2)Man(a1-6)]Man(b1-4)GlcNAc(b1-4)GlcNAc
# Procedure, shortened: as §1
# [13] = biological target: GlcNAc(b1-3)Gal(b1-4)GlcNAc(b1-2)Man(a1-3)[GlcNAc(b1-3)Gal(b1-4)GlcNAc(b1-2)Man(a1-6)]Man(b1-4)GlcNAc(b1-4)[Fuc(a1-6)]GlcNAc
# Procedure, shortened: as §1
# [14] = biological target: GlcNAc(b1-3)Gal(b1-4)GlcNAc(b1-2)[GlcNAc(b1-3)Gal(b1-4)GlcNAc(b1-6)]Man(a1-6)[GlcNAc(b1-3)Gal(b1-4)GlcNAc(b1-2)Man(a1-3)]Man(b1-4)GlcNAc(b1-4)GlcNAc
# Procedure, shortened: as §1
# [15] = biological target: GlcNAc(b1-3)Gal(b1-4)GlcNAc(b1-3)Gal(b1-4)GlcNAc
# Procedure, shortened: as §1
# [16] = biological target: GlcNAc(b1-3)Gal(b1-4)GlcNAc(b1-3)Gal(b1-4)GlcNAc(b1-2)Man(a1-3)[GlcNAc(b1-3)Gal(b1-4)GlcNAc(b1-3)Gal(b1-4)GlcNAc(b1-2)Man(a1-6)]Man(b1-4)GlcNAc(b1-4)GlcNAc
# Procedure, shortened: as §1
# [17] = biological target: GlcNAc(b1-3)Gal(b1-4)GlcNAc(b1-3)Gal(b1-4)GlcNAc(b1-2)Man(a1-3)[GlcNAc(b1-3)Gal(b1-4)GlcNAc(b1-3)Gal(b1-4)GlcNAc(b1-2)Man(a1-6)]Man(b1-4)GlcNAc(b1-4)[Fuc(a1-6)]GlcNAc
# Procedure, shortened: as §1
# [18] = biological target: GlcNAc(b1-3)Gal(b1-4)GlcNAc(b1-3)Gal(b1-4)GlcNAc(b1-2)[GlcNAc(b1-3)Gal(b1-4)GlcNAc(b1-3)Gal(b1-4)GlcNAc(b1-6)]Man(a1-6)[GlcNAc(b1-3)Gal(b1-4)GlcNAc(b1-3)Gal(b1-4)GlcNAc(b1-2)Man(a1-3)]Man(b1-4)GlcNAc(b1-4)[Fuc(a1-6)]GlcNAc
# Procedure, shortened: as §1
# [19] = biological target: GlcNAc(b1-3)Gal(b1-4)GlcNAc(b1-3)Gal(b1-4)GlcNAc(b1-3)Gal(b1-4)GlcNAc(b1-2)Man(a1-3)[GlcNAc(b1-3)Gal(b1-4)GlcNAc(b1-3)Gal(b1-4)GlcNAc(b1-3)Gal(b1-4)GlcNAc(b1-2)Man(a1-6)]Man(b1-4)GlcNAc(b1-4)GlcNAc
# Procedure, shortened: as §1
# [20] = biological target: GlcNAc(b1-3)Gal(b1-4)GlcNAc(b1-3)Gal(b1-4)GlcNAc(b1-3)Gal(b1-4)GlcNAc(b1-2)Man(a1-3)[GlcNAc(b1-3)Gal(b1-4)GlcNAc(b1-3)Gal(b1-4)GlcNAc(b1-3)Gal(b1-4)GlcNAc(b1-2)Man(a1-6)]Man(b1-4)GlcNAc(b1-4)[Fuc(a1-6)]GlcNAc
# Procedure, shortened: as §1
# [21] = biological target: GlcNAc(b1-3)Gal(b1-4)GlcNAc(b1-3)Gal(b1-4)GlcNAc(b1-3)Gal(b1-4)GlcNAc(b1-2)[GlcNAc(b1-3)Gal(b1-4)GlcNAc(b1-3)Gal(b1-4)GlcNAc(b1-3)Gal(b1-4)GlcNAc(b1-6)]Man(a1-6)[GlcNAc(b1-3)Gal(b1-4)GlcNAc(b1-3)Gal(b1-4)GlcNAc(b1-3)Gal(b1-4)GlcNAc(b1-2)Man(a1-3)]Man(b1-4)GlcNAc(b1-4)[Fuc(a1-6)]GlcNAc
# Procedure, shortened: as §1
# [22] = biological target: GlcNAc(b1-3)Gal(b1-4)GlcNAc(b1-3)Gal(b1-4)GlcNAc(b1-3)Gal(b1-4)GlcNAc(b1-3)Gal(b1-4)GlcNAc(b1-2)Man(a1-3)[GlcNAc(b1-3)Gal(b1-4)GlcNAc(b1-3)Gal(b1-4)GlcNAc(b1-3)Gal(b1-4)GlcNAc(b1-3)Gal(b1-4)GlcNAc(b1-2)Man(a1-6)]Man(b1-4)GlcNAc(b1-4)GlcNAc
# Procedure, shortened: as §1
# [23] = biological target: GlcNAc(b1-3)Gal(b1-4)GlcNAc(b1-3)Gal(b1-4)GlcNAc(b1-3)Gal(b1-4)GlcNAc(b1-3)Gal(b1-4)GlcNAc(b1-2)Man(a1-3)[GlcNAc(b1-3)Gal(b1-4)GlcNAc(b1-3)Gal(b1-4)GlcNAc(b1-3)Gal(b1-4)GlcNAc(b1-3)Gal(b1-4)GlcNAc(b1-2)Man(a1-6)]Man(b1-4)GlcNAc(b1-4)[Fuc(a1-6)]GlcNAc
# Procedure, shortened: as §1
# [24] = biological target: GlcNAc(b1-3)Gal(b1-4)GlcNAc(b1-3)Gal(b1-4)GlcNAc(b1-3)Gal(b1-4)GlcNAc(b1-3)Gal(b1-4)GlcNAc(b1-2)[GlcNAc(b1-3)Gal(b1-4)GlcNAc(b1-3)Gal(b1-4)GlcNAc(b1-3)Gal(b1-4)GlcNAc(b1-3)Gal(b1-4)GlcNAc(b1-6)]Man(a1-6)[GlcNAc(b1-3)Gal(b1-4)GlcNAc(b1-3)Gal(b1-4)GlcNAc(b1-3)Gal(b1-4)GlcNAc(b1-3)Gal(b1-4)GlcNAc(b1-2)Man(a1-3)]Man(b1-4)GlcNAc(b1-4)[Fuc(a1-6)]GlcNAc
# Procedure, shortened: as §1
# [25] = biological target: GlcNAc(b1-3)Gal(b1-4)GlcNAc(b1-3)Gal(b1-4)GlcNAc(b1-3)GalNAc
# Procedure, shortened: as §1
# [26] = biological target: GlcNAc(b1-3)Gal(b1-4)GlcNAc(b1-3)GalNAc
# Procedure, shortened: as §1
# [27] = biological target: GlcNAc(b1-3)Gal(b1-4)GlcNAc(b1-3)[GlcNAc(b1-3)Gal(b1-4)GlcNAc(b1-3)]GalNAc
# Procedure, shortened: as §1
# [28] = biological target: GlcNAc(b1-3)Gal(b1-4)GlcNAc(b1-6)[Gal(b1-3)]GalNAc
# Procedure, shortened: as §1
# [29] = biological target: GlcNAc(b1-3)Gal(b1-4)GlcNAc(b1-6)[GlcNAc(b1-3)Gal(b1-3)]GalNAc
# Procedure, shortened: as §1
# [30] = biological target: GlcNAc(b1-3)Gal(b1-4)GlcNAc(b1-6)[GlcNAc(b1-3)]Gal(b1-4)GlcNAc
# Procedure, shortened: as §1
# [31] = biological target: GlcNAc(b1-3)GalNAc
# Procedure, shortened: as §1
# [32] = biological target: GlcNAc(b1-3)Man
# Procedure, shortened: as §1
# [33] = biological target: GlcNAc(b1-3)[GlcNAc(b1-4)][GlcNAc(b1-6)]GlcNAc
# Procedure, shortened: as §1
# [34] = biological target: GlcNAc(b1-3)[GlcNAc(b1-6)]Gal(b1-4)GlcNAc
# Procedure, shortened: as §1
# [35] = biological target: GlcNAc(b1-3)[GlcNAc(b1-6)]GalNAc
# Procedure, shortened: as §1
# [36] = biological target: GlcNAc(b1-3)[GlcNAc(b1-6)]GlcNAc(b1-4)GlcNAc
# Procedure, shortened: as §1
# [37] = biological target: GlcNAc(b1-4)Gal(b1-4)GlcNAc
# Procedure, shortened: as §1
binder,measurement,setting,value
B1,glycan array binding signal (z-score),[1],-0.212
same,glycan array binding signal (z-score),[2],-0.209
same,glycan array binding signal (z-score),[3],-0.218
same,glycan array binding signal (z-score),[4],-0.215
same,glycan array binding signal (z-score),[5],-0.214
same,glycan array binding signal (z-score),[6],-0.215
same,glycan array binding signal (z-score),[7],-0.209
same,glycan array binding signal (z-score),[8],-0.211
same,glycan array binding signal (z-score),[9],-0.212
same,glycan array binding signal (z-score),[10],-0.218
same,glycan array binding signal (z-score),[11],-0.217
same,glycan array binding signal (z-score),[12],1.1
same,glycan array binding signal (z-score),[13],2.21
same,glycan array binding signal (z-score),[14],-0.18
same,glycan array binding signal (z-score),[15],-0.21
same,glycan array binding signal (z-score),[16],0.277
same,glycan array binding signal (z-score),[17],1.22
same,glycan array binding signal (z-score),[18],0.003
same,glycan array binding signal (z-score),[19],0.307
same,glycan array binding signal (z-score),[20],0.769
same,glycan array binding signal (z-score),[21],0.035
same,glycan array binding signal (z-score),[22],0.215
same,glycan array binding signal (z-score),[23],0.572
same,glycan array binding signal (z-score),[24],0.094
same,glycan array binding signal (z-score),[25],-0.212
same,glycan array binding signal (z-score),[26],-0.218
same,glycan array binding signal (z-score),[27],-0.209
same,glycan array binding signal (z-score),[28],-0.211
same,glycan array binding signal (z-score),[29],-0.217
same,glycan array binding signal (z-score),[30],-0.207
same,glycan array binding signal (z-score),[31],-0.22
same,glycan array binding signal (z-score),[32],-0.213
same,glycan array binding signal (z-score),[33],-0.217
same,glycan array binding signal (z-score),[34],-0.219
same,glycan array binding signal (z-score),[35],-0.206
same,glycan array binding signal (z-score),[36],-0.221
same,glycan array binding signal (z-score),[37],-0.214

# — the supplement of paper PMC8728848
